Among the data in article PMC9911399, “Two distinct binding modes provide the RNA-binding protein RbFox with extraordinary sequence specificity” are binding signal values, retold here.

Sequences and labels used below:
T1: RBFOX1 RRM (Homo sapiens, UniProt Q9NWB1 109-208)
T1 sequence: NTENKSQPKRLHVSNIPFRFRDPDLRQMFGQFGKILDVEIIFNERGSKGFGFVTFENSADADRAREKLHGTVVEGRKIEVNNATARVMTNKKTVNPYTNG

B1: CUCCGAU (DNA:RNA)
RNA: GGGAGACCGGAAUUCAGAUUGUCCCUCCGAUUUAAAUCCCGUCGUAGCCACCA
DNA 1: CAATCTGAATTCCGGTCTCCC
DNA 2: TGGTGGCTACGACGGGATT
B2: UACACGG (DNA:RNA)
RNA: B1 RNA with C25U, U26A, C28A, G29C, A30G, U31G
DNA 1: CAATCTGAATTCCGGTCTCCC
DNA 2: TGGTGGCTACGACGGGATT
B3: CGUGCUG (DNA:RNA)
RNA: B1 RNA with U26G, C27U, C28G, G29C, A30U, U31G
DNA 1: CAATCTGAATTCCGGTCTCCC
DNA 2: TGGTGGCTACGACGGGATT
B4: UCGCUUA (DNA:RNA)
RNA: B1 RNA with C25U, U26C, C27G, G29U, A30U, U31A
DNA 1: CAATCTGAATTCCGGTCTCCC
DNA 2: TGGTGGCTACGACGGGATT
B5: UAGGAUU (DNA:RNA)
RNA: B1 RNA with C25U, U26A, C27G, C28G, G29A, A30U
DNA 1: CAATCTGAATTCCGGTCTCCC
DNA 2: TGGTGGCTACGACGGGATT
B6: CCCAAUU (DNA:RNA)
RNA: B1 RNA with U26C, C28A, G29A, A30U
DNA 1: CAATCTGAATTCCGGTCTCCC
DNA 2: TGGTGGCTACGACGGGATT
B7: GCCGGAA (DNA:RNA)
RNA: B1 RNA with C25G, U26C, C28G, U31A
DNA 1: CAATCTGAATTCCGGTCTCCC
DNA 2: TGGTGGCTACGACGGGATT
B8: UUACCCC (DNA:RNA)
RNA: B1 RNA with C25U, C27A, G29C, A30C, U31C
DNA 1: CAATCTGAATTCCGGTCTCCC
DNA 2: TGGTGGCTACGACGGGATT
B9: GAUACUA (DNA:RNA)
RNA: GGGAGACCGGAAUUCAGAUUGUCCGAUACUAUUAAAUCCCGUCGUAGCCACCA
DNA 1: CAATCTGAATTCCGGTCTCCC
DNA 2: TGGTGGCTACGACGGGATT
B10: AGCAGUC (DNA:RNA)
RNA: B1 RNA with C25A, U26G, C28A, A30U, U31C
DNA 1: CAATCTGAATTCCGGTCTCCC
DNA 2: TGGTGGCTACGACGGGATT
B11: GUGACAG (DNA:RNA)
RNA: B9 RNA with A26U, U27G, U30A, A31G
DNA 1: CAATCTGAATTCCGGTCTCCC
DNA 2: TGGTGGCTACGACGGGATT
B12: CACACCA (DNA:RNA)
RNA: B9 RNA with G25C, U27C, U30C
DNA 1: CAATCTGAATTCCGGTCTCCC
DNA 2: TGGTGGCTACGACGGGATT
B13: UCUCAAC (DNA:RNA)
RNA: B1 RNA with C25U, U26C, C27U, G29A, U31C
DNA 1: CAATCTGAATTCCGGTCTCCC
DNA 2: TGGTGGCTACGACGGGATT
B14: AGCGGAU (DNA:RNA)
RNA: B1 RNA with C25A, U26G, C28G
DNA 1: CAATCTGAATTCCGGTCTCCC
DNA 2: TGGTGGCTACGACGGGATT
B15: AGAUCUA (DNA:RNA)
RNA: B9 RNA with G25A, A26G, U27A, A28U
DNA 1: CAATCTGAATTCCGGTCTCCC
DNA 2: TGGTGGCTACGACGGGATT
B16: CUACACC (DNA:RNA)
RNA: B1 RNA with C27A, G29A, A30C, U31C
DNA 1: CAATCTGAATTCCGGTCTCCC
DNA 2: TGGTGGCTACGACGGGATT
B17: CAACGAC (DNA:RNA)
RNA: B1 RNA with U26A, C27A, U31C
DNA 1: CAATCTGAATTCCGGTCTCCC
DNA 2: TGGTGGCTACGACGGGATT
B18: AAUGGUA (DNA:RNA)
RNA: B9 RNA with G25A, A28G, C29G
DNA 1: CAATCTGAATTCCGGTCTCCC
DNA 2: TGGTGGCTACGACGGGATT
B19: CGGCCAG (DNA:RNA)
RNA: B1 RNA with U26G, C27G, G29C, U31G
DNA 1: CAATCTGAATTCCGGTCTCCC
DNA 2: TGGTGGCTACGACGGGATT
B20: CGUUUUG (DNA:RNA)
RNA: B9 RNA with G25C, A26G, A28U, C29U, A31G
DNA 1: CAATCTGAATTCCGGTCTCCC
DNA 2: TGGTGGCTACGACGGGATT
B21: ACUUAUA (DNA:RNA)
RNA: B9 RNA with G25A, A26C, A28U, C29A
DNA 1: CAATCTGAATTCCGGTCTCCC
DNA 2: TGGTGGCTACGACGGGATT
B22: AUCAGAG (DNA:RNA)
RNA: B1 RNA with C25A, C28A, U31G
DNA 1: CAATCTGAATTCCGGTCTCCC
DNA 2: TGGTGGCTACGACGGGATT
B23: GGACAAG (DNA:RNA)
RNA: B1 RNA with C25G, U26G, C27A, G29A, U31G
DNA 1: CAATCTGAATTCCGGTCTCCC
DNA 2: TGGTGGCTACGACGGGATT
B24: GCGGUAG (DNA:RNA)
RNA: B1 RNA with C25G, U26C, C27G, C28G, G29U, U31G
DNA 1: CAATCTGAATTCCGGTCTCCC
DNA 2: TGGTGGCTACGACGGGATT
B25: GUAAUAA (DNA:RNA)
RNA: B9 RNA with A26U, U27A, C29U, U30A
DNA 1: CAATCTGAATTCCGGTCTCCC
DNA 2: TGGTGGCTACGACGGGATT
B26: UAUGCUC (DNA:RNA)
RNA: B9 RNA with G25U, A28G, A31C
DNA 1: CAATCTGAATTCCGGTCTCCC
DNA 2: TGGTGGCTACGACGGGATT
B27: AAUUUUC (DNA:RNA)
RNA: B9 RNA with G25A, A28U, C29U, A31C
DNA 1: CAATCTGAATTCCGGTCTCCC
DNA 2: TGGTGGCTACGACGGGATT
B28: CUACUAG (DNA:RNA)
RNA: B1 RNA with C27A, G29U, U31G
DNA 1: CAATCTGAATTCCGGTCTCCC
DNA 2: TGGTGGCTACGACGGGATT
B29: UCAAGAA (DNA:RNA)
RNA: B1 RNA with C25U, U26C, C27A, C28A, U31A
DNA 1: CAATCTGAATTCCGGTCTCCC
DNA 2: TGGTGGCTACGACGGGATT
B30: CCUCGGA (DNA:RNA)
RNA: B1 RNA with U26C, C27U, A30G, U31A
DNA 1: CAATCTGAATTCCGGTCTCCC
DNA 2: TGGTGGCTACGACGGGATT
B31: GACCAAU (DNA:RNA)
RNA: B1 RNA with C25G, U26A, G29A
DNA 1: CAATCTGAATTCCGGTCTCCC
DNA 2: TGGTGGCTACGACGGGATT

Numbering of substitutions follows the chain as printed; changes in the protein carry UniProt numbers. The list shows a part of the results.

This assay concerns the target T1, RBFOX1 RRM. Put plainly: EMSA; HiTS-Eq, 1 nM pool, 10 min; buffer printed only for the single-RNA assays: 10 mM Tris pH 7.5, 150 mM NaCl, 3.4 mM EDTA, 0.001% NP-40, 30 C. Particulars: tags: His6 N-terminal (pET28a); label: 5' 32P. The gist of the method: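 A pool of RNA with 7 randomized nucleotides, 5′-radiolabelled and with DNA-annealed flanks, was equilibrated at 1 nM for 10 min in 50 µL with purified RbFox RRM, wild type or mutant, across increasing protein concentrations. Free RNA was separated by 8% native PAGE, excised, reverse-transcribed, barcoded by PCR and sequenced. Relative association constants were obtained from read-count changes of each RNA species versus the control reaction and normalised to the cognate motif.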
A general note: A gel shift assay detects complexes by their altered migration in electrophoresis.
B1: the binding signal was 0.00683 KA relative to UGCAUGU.
B2: the binding signal was 0.00971 KA relative to UGCAUGU.
In the case of B3 it was 0.0178 KA relative to UGCAUGU; in that of B4, 0.00671 KA relative to UGCAUGU; in that of B5, 0.00732 KA relative to UGCAUGU.
In the case of B6 it was 0.0029 KA relative to UGCAUGU.
The same measure for B7: 0.011 KA relative to UGCAUGU.
Take B8: the binding signal is 0.0005 KA relative to UGCAUGU.
Regarding B9, the binding signal was 0.00653 KA relative to UGCAUGU.
In the case of B10 it was 0.0114 KA relative to UGCAUGU.
For B11, the binding signal was 0.0141 KA relative to UGCAUGU.
In the case of B12 it was 0.000943 KA relative to UGCAUGU; in that of B13, 0.00346 KA relative to UGCAUGU.
The same measure for B14: 0.00761 KA relative to UGCAUGU.
In the case of B15 it was 0.00635 KA relative to UGCAUGU; in that of B16, 0.000993 KA relative to UGCAUGU; in that of B17, 0.00321 KA relative to UGCAUGU.
Take B18: the binding signal is 0.0114 KA relative to UGCAUGU.
Consider B19, for which the binding signal was 0.0139 KA relative to UGCAUGU.
The same measure for B20: 0.0185 KA relative to UGCAUGU; for B21: 0.00126 KA relative to UGCAUGU.
In the case of B22 it was 0.00693 KA relative to UGCAUGU.
In the case of B23 it was 0.0165 KA relative to UGCAUGU; in that of B24, 0.016 KA relative to UGCAUGU.
For B25, the binding signal is 0.00176 KA relative to UGCAUGU.
The same measure for B26: 0.0158 KA relative to UGCAUGU.
As for B27, the binding signal was 0.00788 KA relative to UGCAUGU.
The same measure for B28: 0.0104 KA relative to UGCAUGU; for B29: 0.00503 KA relative to UGCAUGU.
The same measure for B30: 0.00996 KA relative to UGCAUGU.
The same measure for B31: 0.00483 KA relative to UGCAUGU.
